Data published in the antibiotic and cytotoxicity screens of Wong et al. (2023).
The list shows a part of the results.

Key:
HSkMC = human skeletal muscle cells; assay: cytotoxicity call (relative viability < 0.9); settings: 10 µM
HepG2 = assay: cytotoxicity call (relative viability < 0.9); settings: 10 µM
S. aureus RN4220 = assay: growth inhibition call (relative growth <= 0.2); settings: 50 µM

Structure (SMILES) | cytotoxicity call (HSkMC) | cytotoxicity call (HepG2) | growth inhibition call (S. aureus RN4220)
COc1ccc(NC(=O)N(C)C[C@@H]2Oc3c(NS(=O)(=O)c4cn(C)cn4)cccc3C(=O)N([C@@H](C)CO)C[C@@H]2C)cc1 | inactive | inactive | inactive
C[C@H]1CN([C@@H](C)CO)C(=O)Cc2cc(NS(=O)(=O)c3ccccc3)ccc2O[C@@H]1CN(C)S(C)(=O)=O | inactive | inactive | inactive
CS(=O)(=O)Nc1ccc2c(c1)[C@@H]1C[C@H](CC(=O)NCC3CC3)O[C@@H](CO)[C@@H]1O2 | inactive | inactive | inactive
C[C@@H]1CN([C@H](C)CO)C(=O)c2cc(C#Cc3ccncc3)cnc2O[C@@H]1CN(C)C(=O)c1ccccc1F | inactive | inactive | inactive
C[C@@H]1CN([C@H](C)CO)C(=O)Cc2cc(NC(=O)Nc3ccc(C(F)(F)F)cc3)ccc2O[C@@H]1CN(C)C(=O)Nc1ccc(F)cc1 | inactive | active | inactive
COc1ccc(S(=O)(=O)Nc2ccc3c(c2)C(=O)N([C@H](C)CO)C[C@H](C)[C@H](CN(C)C(=O)c2ccccc2)OCCCC[C@@H](C)O3)cc1 | inactive | inactive | inactive
C[C@]12C=CC(=O)C=C1CC[C@@H]1[C@@H]2[C@@H](O)C[C@@]2(C)[C@H]1CC[C@]2(O)C(=O)COC(=O)c1ccc(CO[N+](=O)[O-])cc1 | inactive | inactive | inactive
C[C@H]1CCCCO[C@@H](CN(C)Cc2ccncc2)[C@@H](C)CN([C@@H](C)CO)C(=O)c2cc(NC(=O)C3CCCCC3)ccc2O1 | inactive | inactive | inactive
O=C(CCNc1n[nH]c(=O)[nH]c1=O)NCc1ccco1 | inactive | inactive | inactive
C[C@H]1CN([C@@H](C)CO)C(=O)c2cccc(NS(=O)(=O)c3cccs3)c2O[C@@H]1CN(C)CC1CC1 | inactive | inactive | inactive
NCC[C@@H]1CC[C@H](NC(=O)C2CCCC2)[C@H](CO)O1 | inactive | inactive | inactive
CO[C@@H]1CN(C)C(=O)c2cc(NC(=O)Nc3cccc(Cl)c3)ccc2OC[C@H](C)N(C(=O)Nc2c(C)noc2C)C[C@H]1C | inactive | inactive | inactive
C[C@@H]1CN([C@H](C)CO)C(=O)c2cc(C#CCN(C)C)cnc2O[C@@H]1CN(C)S(=O)(=O)c1ccccc1 | inactive | inactive | inactive
O=C(CCCCCCC(=O)N/N=C/[C@H](O)[C@H](O)[C@@H](O)[C@@H](O)CO)NO | inactive | inactive | inactive
CC(C)(C)OC(=O)N1CCNC(=O)C1 | inactive | inactive | inactive
CCOC(=O)[C@@H]1CCCCN1C(=O)C(=O)OC | inactive | inactive | inactive
CN1C[C@@H](O)COC[C@@H]2O[C@@H](CC(=O)N3CCN(c4ccccc4)CC3)CC[C@H]21 | inactive | inactive | inactive
C[C@@H]1CCCCO[C@H](CN(C)Cc2ccccc2)[C@H](C)CN([C@@H](C)CO)C(=O)c2cc(NC(=O)C3CCCCC3)ccc2O1 | inactive | inactive | inactive
C[C@@H]1CN([C@H](C)CO)C(=O)c2cc(NS(=O)(=O)c3ccc(Cl)cc3)ccc2O[C@@H](C)CCCCO[C@H]1CN(C)S(=O)(=O)c1ccc(F)cc1 | inactive | active | inactive
C[C@@H]1CN([C@H](C)CO)C(=O)c2cc(NC(=O)C3CCCCC3)ccc2O[C@H]1CN(C)C(=O)Nc1cccc2ccccc12 | inactive | inactive | inactive
CC(C)NC(=O)N(C)C[C@H]1OCCCC[C@H](C)Oc2ccc(NC(=O)C3CCCCC3)cc2C(=O)N([C@H](C)CO)C[C@@H]1C | inactive | inactive | inactive
C[C@@H]1CN([C@H](C)CO)C(=O)Cc2cc(NC(=O)Nc3ccc(F)cc3)ccc2O[C@H]1CN(C)Cc1ccc(C(F)(F)F)cc1 | active | active | inactive
CCCN(C)C[C@H]1OCCCC[C@@H](C)Oc2ccc(NC(=O)Cc3ccccc3)cc2C(=O)N([C@@H](C)CO)C[C@H]1C | inactive | inactive | inactive
COc1ccc([Si](C)(C)[C@H]2[C@H](CCn3cc([C@H](O)c4ccccc4)nn3)O[C@@]3(C(=O)N(Cc4ccc(N5CCC5=O)cc4)c4ccccc43)[C@@H]2C)cc1 | inactive | inactive | inactive
C[C@H](CO)N1C[C@H](C)[C@@H](CN(C)C(=O)N[C@H](C)c2ccccc2)OCc2ccccc2-c2c(n(C)c3ccccc23)C1=O | inactive | inactive | inactive
